Assay results as given in PubChem BioAssay AID1476 (National Center for Advancing Translational Sciences (NCATS), 2009).
Out of some 200,000 compounds screened, about 4,500 (2.2%) were called active. The shares of active, inactive and inconclusive entries below differ from those in the screen. The call rests on the fitted dose curve; in most records, active means well fitted inhibition curve with a large enough effect; inconclusive means small, poorly fitted or top-dose-only effect, or effect the other way; inactive means flat fitted curve, though single readings scatter. Where the call is inconclusive, the potency comes from a doubtful curve fit.

Target: Cruzipain (Trypanosoma cruzi) (UniProt P25779)
UniProt P25779, sequence (P25779 whole entry, looked up): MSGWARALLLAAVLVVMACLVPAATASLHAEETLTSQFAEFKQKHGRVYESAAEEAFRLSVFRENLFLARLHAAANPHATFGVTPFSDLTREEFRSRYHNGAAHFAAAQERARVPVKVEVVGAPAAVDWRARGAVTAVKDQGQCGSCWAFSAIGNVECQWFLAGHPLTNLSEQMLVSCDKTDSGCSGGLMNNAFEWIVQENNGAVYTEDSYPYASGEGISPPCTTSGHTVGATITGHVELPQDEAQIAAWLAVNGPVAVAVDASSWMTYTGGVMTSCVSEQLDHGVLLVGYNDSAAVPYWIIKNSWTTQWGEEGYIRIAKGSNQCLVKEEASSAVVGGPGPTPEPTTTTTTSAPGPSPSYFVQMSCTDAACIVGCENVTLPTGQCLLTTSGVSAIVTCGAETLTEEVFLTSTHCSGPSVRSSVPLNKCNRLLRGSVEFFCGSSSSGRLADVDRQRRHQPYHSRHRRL
Assay: qHTS Assay for Promiscuous and Specific Inhibitors of Cruzain (without detergent); further: nearly all actives have a fitted effect of over 40% in size;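 on max response, negative = inhibition: plate controls were enzyme without inhibitor for no effect and buffer without enzyme for full effect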
Settings: purified cruzain, Z-FR-AMC fluorescence, no detergent
Procedure, shortened: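 Purified cruzain at 1.5 nM, pre-incubated 15 min with compound at room temperature in 100 mM sodium acetate pH 5.5, 5 mM DTT, 0.00005% Triton X-100. Reaction started with 2 uM Z-FR-AMC; AMC fluorescence increase over 60 s gives rate.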
Potency means the concentration at half of the fitted maximal effect; tags describe the fitted curve by direction and shape.

Q: With `CN1C(=O)CC[C@@H]1c1cccnc1` as the molecule, how does the max response, negative = inhibition read?
A: inactive: -6.06%

Q: Which Potency does the source give for `COc1ccc(S(=O)(=O)NCc2ccc3c(c2)cc(C)n3C)cc1` here?
A: inconclusive: 31.6 µM [inhibitor, single point]

Q: Which max response, negative = inhibition does the source give for `O=C(c1ccccc1)c1ccc2nc(Nc3cc(Cl)ccc3O)c3nncn3c2c1` here?
A: inactive: 0.313%

Q: `COc1ccc(C(=O)NC(=S)Nc2ccc3c(c2)Cc2ccccc2-3)cc1` was tested. Which Potency did it give?
A: inconclusive: 39.8 µM [inhibitor, single point]

Q: How did the max response, negative = inhibition turn out when `C#CCOC(=O)NC(/C=C/CCCC)c1ccccc1` (stereo not drawn) was run?
A: inactive: -3.78%

Q: For `CCCCC/C=C\C/C=C\C=C\[C@@H](O)C/C=C\CCCC(=O)O`, which max response, negative = inhibition is on record?
A: inactive: 1.29%

Q: With `CCOC(=O)C1CCN(C(=O)c2oc3ccc(S(=O)(=O)N4CC(C)CC(C)C4)cc3c2C)CC1` (stereo not drawn) as the molecule, how does the Potency read?
A: inconclusive: 39.8 µM [activator, single point]

Q: With `CC1CCCN(C(=O)c2ccc3c(=O)n(Cc4ccc5c(c4)OCO5)c(=S)[nH]c3c2)C1` (stereo not drawn) as the molecule, how does the Potency read?
A: inconclusive: 31.6 µM [inhibitor, single point]

Q: For `C[C@@H](C(=O)NCc1ccc(S(C)(=O)=O)cc1)[C@H]1C[C@]1(C)[C@H](NC(=O)OCc1ccccc1)c1ccccc1`, which Potency is on record?
A: inconclusive: 39.8 µM [activator, single point]

Q: With `Cc1ccc2[nH]c(=O)c(COC(=O)c3cccs3)cc2c1` as the molecule, how does the Potency read?
A: inconclusive: 31.6 µM [inhibitor, single point]

Q: `N#Cc1ccc(-c2ccc(Cl)cc2)nc1SCC(=O)c1cccc(Cl)c1` was tested. Which Potency did it give?
A: active: 10 µM

Q: How did the Potency turn out when `Cc1cccn2c(=O)c(/C=C(\C#N)S(=O)(=O)c3ccc(Cl)cc3)c(N3CCC(C(N)=O)CC3)nc12` was run?
A: inconclusive: 25.1 µM [activator, single point]

Q: Which max response, negative = inhibition does the source give for `O=C(Nc1cccnc1Cl)c1cc(-c2ccco2)on1` here?
A: inactive: 3.38%

Q: How did the max response, negative = inhibition turn out when `O=C1CC(NNc2ccccc2)C(=O)N1c1cccc(Cl)c1` (stereo not drawn) was run?
A: inactive: -28.1%

Q: With `CCOC(=O)CSC1=NC(=O)/C(=C\c2ccc(Cl)cc2)S1` as the molecule, how does the Potency read?
A: inconclusive: 39.8 µM [activator, single point]

Q: Which max response, negative = inhibition does the source give for `Cc1cc(C)c(NC(=O)CCC(=O)N2Cc3ccccc3Oc3ncccc32)c(C)c1` here?
A: inactive: 27.1%

Q: With `Cc1ccsc1/C=C(\C(=O)c1ccc(OC(C)C)cc1)c1nc2ccccc2o1` as the molecule, how does the Potency read?
A: active: 31.6 µM

Q: For `Cc1nc(N2CCOCC2)c2c(C(=O)N3CCN(c4cccc(C)c4C)CC3)c(C)oc2n1`, which Potency is on record?
A: inconclusive: 20 µM [activator, single point]

Q: With `O=C(O)CC[C@@]1(c2ccccc2)NC(=O)NC1=O` as the molecule, how does the max response, negative = inhibition read?
A: inactive: 5.18%

Q: How did the max response, negative = inhibition turn out when `CCCN1C(=O)C2(c3ccccc31)c1c(oc3ccc(C)cc3c1=O)C(=O)N2CCOC` (stereo not drawn) was run?
A: inactive: 8.62%

Q: For `CCc1nnc(N/N=C/c2ccc(N3CCC(C)CC3)c([N+](=O)[O-])c2)n1N`, which max response, negative = inhibition is on record?
A: inactive: 0.475%

Q: For `CCCCNC(=O)c1c(N)n(CCCOC)c2nc3ccccc3nc12`, which Potency is on record?
A: inconclusive: 20 µM [activator, partial curve]

Q: Which max response, negative = inhibition does the source give for `Cc1cc(-c2ccc(S(=O)(=O)Nc3ccc(Br)c(C)c3)s2)on1` here?
A: inactive: -24.6%

Q: Which max response, negative = inhibition does the source give for `O=C(OCC1CC(c2ccccc2)=NO1)c1ccc(Cl)cc1` (stereo not drawn) here?
A: inactive: -10.1%

Q: Which max response, negative = inhibition does the source give for `CCc1ccc2[nH]c(=O)c(CN(CCN(CC)CC)C(=O)NC3CCCCC3)cc2c1` here?
A: inactive: 4.07%

Q: `COc1ccc(-c2nnc(-c3ccc(N)cc3)o2)cc1` was tested. Which max response, negative = inhibition did it give?
A: inactive: -17.3%

Q: With `CCC(Sc1nc2n[nH]c(C)c2c(=N)n1-c1ccc(C)c(Cl)c1)C(=O)N1CCOCC1` (stereo not drawn) as the molecule, how does the Potency read?
A: inconclusive: 31.6 µM [activator, single point]

Q: Which max response, negative = inhibition does the source give for `CC(=O)n1c(COS(C)(=O)=O)nc2ccccc21` here?
A: inactive: -14.3%

Q: `O=c1c2cnn(-c3ccc(F)cc3)c2ncn1Cc1ccc(F)cc1` was tested. Which Potency did it give?
A: inconclusive: 39.8 µM [inhibitor, single point]

Q: Which Potency does the source give for `COC(=O)[C@@H]1CC[C@H](C)[C@@H](c2ccc(C)cc2)N1C(=O)c1ccc(/C=N/OC[C@@H](O)[C@H]2O[C@@H]3OC(C)(C)O[C@@H]3[C@H]2O)cc1` here?
A: inconclusive: 10 µM [activator, partial curve]

Q: `Cc1cc(N2CCN(C(=O)c3ccco3)CC2)n2nc(-c3cccc(Cl)c3)cc2n1` was tested. Which Potency did it give?
A: inconclusive: 25.1 µM [activator, partial curve]

Q: How did the max response, negative = inhibition turn out when `COc1ccc(N(Cc2cccs2)C(=O)COc2cc(C)c(Cl)c(C)c2)cc1` was run?
A: inactive: 3.63%

Q: `CCN(CC)S(=O)(=O)c1ccc2oc(C(=O)Nc3ccc(OC)cc3OC)c(C)c2c1` was tested. Which Potency did it give?
A: inconclusive: 31.6 µM [activator, single point]

Q: With `O=[N+]([O-])c1ccc(-c2ccc(C=Nc3cccc4ccccc34)o2)cc1` as the molecule, how does the Potency read?
A: inconclusive: 31.6 µM [inhibitor, single point]

Q: With `Cc1ccc(N(CC(=O)Nc2ccc(C)cn2)S(=O)(=O)c2c(C)nn(C)c2C)cc1` as the molecule, how does the Potency read?
A: inconclusive: 39.8 µM [activator, single point]

Q: For `Cc1oc2ccc(O)c(CN3CCCC3)c2c1C(=O)Nc1cccc(Cl)c1C`, which max response, negative = inhibition is on record?
A: inactive: -3.64%

Q: `Cc1cccc(NC(=O)CSc2nc3c(oc4ccccc43)c(=O)n2-c2ccc(F)cc2)c1` was tested. Which Potency did it give?
A: inconclusive: 20 µM [inhibitor, single point]

Q: Which Potency does the source give for `Cc1ccccc1Nc1nc(Nc2ccccc2C)nc(SC2=NCCS2)n1` here?
A: inconclusive: 39.8 µM [inhibitor, single point]

Q: `N#Cc1ccccc1Sc1ccccc1C(=O)OCC(=O)NC12CC3CC(CC(C3)C1)C2` was tested. Which Potency did it give?
A: inconclusive: 39.8 µM [inhibitor, single point]

Q: Which Potency does the source give for `CCCNC(=O)Cn1cnc2sc(C(=O)Nc3ccc4c(c3)OCO4)c(C)c2c1=O` here?
A: inconclusive: 39.8 µM [inhibitor, single point]

Q: Which Potency does the source give for `COc1ccc(CNC(=O)c2cc3cccc4c3n2CC(C)S4)c(OC)c1` (stereo not drawn) here?
A: inconclusive: 1.58 µM [inhibitor, partial curve]

Q: Which Potency does the source give for `O=C(CSc1nc2cc(Cl)ccc2c(=O)n1Cc1ccco1)Nc1ccc(S(=O)(=O)N2CCOCC2)cc1` here?
A: inconclusive: 31.6 µM [inhibitor, single point]

Q: For `Cc1cccc(NC(=O)CSc2nc(=O)n(Cc3ccccn3)c3c2CCC3)c1C`, which max response, negative = inhibition is on record?
A: inactive: -13%
